Read counts are not given, so values of variants with three or more changes are uncertain.
B1: CPEB3 Ribozyme (parent)
chain: UAACAGGGGGCCACAGCAGAAGCGUUCACGUCGCAGCCCCUGUCAGAUUCUGGUGAAUCUGCGAAUUCUGCUGUAUAUCUC

Variants of: B1
Assay: self-cleavage, relative activity (ratio to wild type); higher = more cleavage; in vitro, sequencing
Summary of the method: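 For each CPEB3 ribozyme variant, relative activity is its cleaved/total read fraction divided by the unmutated ribozyme's. Barcoded error-prone PCR libraries were transcribed by T7 RNA polymerase (5 hours, 37°C) and held in DNase I for 15 min before an EDTA stop, with cleavage occurring throughout. Template-switching reverse transcription and Illumina sequencing were used to read the RNAs. A 5-read minimum applied, and results are the mean of three batches.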

| Variant | self-cleavage |
| --- | --- |
| UAACAGGGGGCCACAGCAGGAGCGUUCACGUCGCAGCCCCGGUCAGAUUCAGGUGAAUCUGCGAAUUCUGCUGUAUAACUC [A20G U41G U51A U78A] | 0.1 |
| UAACAGGGGGCCACAGCAGGAGCGUUCACGUCGCAGCCCCCGUCAGAUUCUGGUGAGUCUGCGAAUUCUGCUGUAUAUCUC [A20G U41C A57G] | 0.8 |
| UAACAGGGGGCCACAGCAGGAGCGUUCACGUCGCAGCCCCUGUCAGAUCCUGGUGAAUCUGCGAAUCCUGCUGUAUAUCCC [A20G U49C U67C U80C] | 0.55 |
| UAACAGGGGGCCACAGCAGGAGCGUUCACGUCGCAGCCCCCGUCAGGUUCUGGUGGAUCUGCGGAUUCUGCUGUAUAUCUC [A20G U41C A47G A56G A64G] | 0.26 |
| UAACAGGGGGCCACAGCAGGAGCGUUCACGUCGCAGCCCCUGUCAGAUCCUGGUGAAUCUGCGAAUUCUGCCGUAUAUCUC [A20G U49C U72C] | 0.27 |
| UAACAGGGGGCCACAGCAGGAGCGUUCACGUCGCAGCCCCUGCCAGAUUCUGGGGCAUCUGCGAUUUCUGCUGUAUAUCUC [A20G U43C U54G A56C A65U] | 0.43 |
| UAACAGGGGGCCACAGCAGGAGCGUUCACGUCGCAGCCCCUGACAGAUUCUGGGGAAUCUGCGAAUUCUGCUGUAUAUCUC [A20G U43A U54G] | 0.49 |
| UAACAGGGGGCCACAGCAGGAGCGUUCACGUCGCAGCCCCUGUCAGAUUCAGGUGAAUCUGCGAAUUCUGCUGUACAUCUC [A20G U51A U76C] | 1.05 |
| UAACAGGGGGCCACAGCAGGAGCGUUCACGUCGCAGCCCCUGACAGAUUCAGGUGAAUCUGCGAAUUCUGCUGAAUAUCUC [A20G U43A U51A U74A] | 1.11 |
| UAACAGGGGGCCACAGCAGGAGCGUUCACGUCGCAGCCCCCGUCAGAUUCUGGUGAAUCGGCGGAUUCUGCUGUAUAUCCC [A20G U41C U60G A64G U80C] | 0.18 |
| UAACAGGGGGCCACAGCAGGAGCGUUCACGUCGCAGCCCCUGACAGAUUCUGGUGAAUCUGCGAAUUCUGCCGUAUAUCUC [A20G U43A U72C] | 1.09 |
| UAACAGGGGGCCACAGCAGGAGCGUUCACGUCGCAGCCCCUGACAGAUUCUGGUGAAUCUGCGAAUUCUGCAGUAUAUCUC [A20G U43A U72A] | 0.26 |
| UAACAGGGGGCCACAGCAGGAGCGUUCACGUCGCAGCCCCUGCCAGAUUCUGGUGAAUCUGCGAAUUCUGCUGUAUAAAUC [A20G U43C U78A C79A] | 0.5 |
| UAACAGGGGGCCACAGCAGGAGCGUUCACGUCGCAGCCCCUGCCAGAUUCUGGGGAAUCAGCGAAUUCUGCAGUAUAUCUC [A20G U43C U54G U60A U72A] | 0.2 |
| UAACAGGGGGCCACAGCAGGAGCGUUCACGUCGCAGCCCCUGUCAGAUCCUGGUGAGUCUGCGAGUUCUGCUGUAUAUCUC [A20G U49C A57G A65G] | 0.03 |
| UAACAGGGGGCCACAGCAGGAGCGUUCACGUCGCAGCCCCUGUCAGAUUCUGGCGAAUCUGCGAAUUCUGCUGUAUACCUU [A20G U54C U78C C81U] | 0.99 |
| UAACAGGGGGCCACAGCAGGAGCGUUCACGUCGCAGCCCCUGCCAGAUUCUGGUGAAUCUGCGAAUACUGCUGUAUAUCUC [A20G U43C U67A] | 0.27 |

| Variant | self-cleavage |
| --- | --- |
| UAACAGGGGGCCACAGCAGGAGCGUUCACGUCGCAGCCCCUGUCAGAUCCUGGUGAAUCUGCGAAUCCUGCUGUAUAUCUC [A20G U49C U67C] | 0.19 |
| UAACAGGGGGCCACAGCAGGAGCGUUCACGUCGCAGCCCCUGACAGAUUCUGGCGGAUCUGCGAAUUCUGCUGUAUUUCUC [A20G U43A U54C A56G A77U] | 0.81 |
| UAACAGGGGGCCACAGCAGGAGCGUUCACGUCGCAGCCCCUGCCAGAUUCUGGUGAAUCUGCGAACUCUGCUGUAUAUCUC [A20G U43C U66C] | 0.24 |
| UAACAGGGGGCCACAGCAGGAGCGUUCACGUCGCAGCCCCUGUCAGAACCUGGUGAGACUGCGAAUUCUGCUGUUUAUCUC [A20G U48A U49C A57G U58A A75U] | 0.16 |
| UAACAGGGGGCCACAGCAGGAGCGUUCACGUCGCAGCCCCUGUCAGAUCCUGGUGAACCUGCGAAUUCUGCUGUAUGUCUC [A20G U49C U58C A77G] | 0.14 |
| UAACAGGGGGCCACAGCAGGAGCGUUCACGUCGCAGCCCCUGUCAGAUACUGGUGAAUCUGCGAAUUCCGCUGUAUAUCUC [A20G U49A U69C] | 0.39 |
| UAACAGGGGGCCACAGCAGGAGCGUUCACGUCGCAGCCCCCGUCAGAUUCUGGUGAUUAUGCGAAUUCUGCUGUAUAUCUC [A20G U41C A57U C59A] | 0.13 |
| UAACAGGGGGCCACAGCAGGAGCGUUCACGUCGCAGCCCCUGUCAGAUUCCGGUGAAUCUGCGAAUUCUGCCGUAUAUCUC [A20G U51C U72C] | 0.74 |
| UAACAGGGGGCCACAGCAGGAGCGUUCACGUCGCAGCCCCUGUCAGAUUCUGGUGAAACUGCUAAUUCUGCUGUAUAUCUC [A20G U58A G63U] | 0.29 |
| UAACAGGGGGCCACAGCAGGAGCGUUCACGUCGCAGCCCCUGCCAGACUCUGGUGAAUCUGCGAAUUCUGCUGUAUAUCCC [A20G U43C U48C U80C] | 0.36 |
| UAACAGGGGGCCACAGCAGGAGCGUUCACGUCGCAGCCCCUGUCAGAUUCAGGUGAAUCUGCGUAUUCUGCUGUAUAUCUC [A20G U51A A64U] | 0.27 |
| UAACAGGGGGCCACAGCAGGAGCGUUCACGUCGCAGCCCCUGUCAGAUCCUGGUGAAUCAGCGAAUUUUGCUGUAUAUCUC [A20G U49C U60A C68U] | 0.08 |
| UAACAGGGGGCCACAGCAGGAGCGUUCACGUCGCAGCCCCUGUCAGAUCCGGGUGAAUCUGCGAAUUCUGCUGUAUAUCUC [A20G U49C U51G] | 0.21 |
| UAACAGGGGGCCACAGCAGGAGCGUUCACGUCGCAGCCCCUGUCAGACUCUGGUGAAUCUGCGAAUGCUGCCGUAUAUCUC [A20G U48C U67G U72C] | 0.11 |
| UAACAGGGGGCCACAGCAGGAGCGUUCACGUCGCAGCCCCUGUCAGAUUCUGGGGAAUCAGCGAAUCUUGCUGUAUAUCUC [A20G U54G U60A U67C C68U] | 0.33 |
| UAACAGGGGGCCACAGCAGGAGCGUUCACGUCGCAGCCCCUGACAGAUUCUGGUGAAUCUGCGAAUUCCGCUGUAUAUCUC [A20G U43A U69C] | 0.78 |
| UAACAGGGGGCCACAGCAGGAGCGUUCACGUCGCAGCCCCUGUCAGACUCUGGUGAAUCUGCGUAUUCUGCUGUAUACCUC [A20G U48C A64U U78C] | 0.27 |

— the RNAGym collection of RNA variant scans (doi:10.1093/nar/gkz1192)
